# According to PubChem BioAssay AID488969 (Vanderbilt High Throughput Screening Facility, 2010):
# Over roughly 110,000 compounds, “z-score” has its median near -0.1; the highest 2% begin near 2. Some of the results follow. The source made the active and inactive calls.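 How the source made its calls: active means z-score in the third read window above 3 or below -3; inactive means the rest.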
# Target: Metabotropic glutamate receptor 8 (Rattus norvegicus) (UniProt P70579)
# Assay: rat mGluR8 modulators via GIRK flux, primary screen, cell-based, thallium flux, HTS (AID 488969)
# Conditions: HEK293 rat mGluR8, GIRK (G protein-gated inwardly rectifying potassium channel) thallium flux, FluoZin2; at 10 µM; stronger effect = higher value; submaximal glutamate (EC20) added with thallium
# Chain of UniProt P70579 (P70579 whole entry, looked up): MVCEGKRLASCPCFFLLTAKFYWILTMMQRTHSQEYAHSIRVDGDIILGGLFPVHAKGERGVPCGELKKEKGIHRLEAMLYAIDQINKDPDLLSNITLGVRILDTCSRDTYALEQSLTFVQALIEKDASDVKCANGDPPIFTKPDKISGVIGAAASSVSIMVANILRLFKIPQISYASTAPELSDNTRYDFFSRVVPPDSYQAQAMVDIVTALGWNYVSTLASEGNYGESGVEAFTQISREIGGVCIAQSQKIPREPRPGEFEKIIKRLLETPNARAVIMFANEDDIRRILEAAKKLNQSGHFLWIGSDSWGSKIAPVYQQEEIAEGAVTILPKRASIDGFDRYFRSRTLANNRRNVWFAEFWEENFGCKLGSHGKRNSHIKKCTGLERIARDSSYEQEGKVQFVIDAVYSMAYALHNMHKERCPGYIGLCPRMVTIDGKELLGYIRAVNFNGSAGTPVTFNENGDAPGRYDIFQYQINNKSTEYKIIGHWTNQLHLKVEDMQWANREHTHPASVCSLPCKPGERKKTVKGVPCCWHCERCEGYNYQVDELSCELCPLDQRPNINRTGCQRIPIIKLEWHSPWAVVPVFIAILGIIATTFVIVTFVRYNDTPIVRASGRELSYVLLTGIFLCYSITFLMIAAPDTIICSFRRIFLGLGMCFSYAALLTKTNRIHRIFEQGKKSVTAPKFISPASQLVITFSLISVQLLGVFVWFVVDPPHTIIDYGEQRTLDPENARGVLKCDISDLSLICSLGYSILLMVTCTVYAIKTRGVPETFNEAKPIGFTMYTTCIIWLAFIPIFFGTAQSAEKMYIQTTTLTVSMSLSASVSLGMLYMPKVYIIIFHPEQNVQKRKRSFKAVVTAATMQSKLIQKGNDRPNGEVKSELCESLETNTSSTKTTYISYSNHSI
row,SMILES,z-score
1,CC(C)CC(=O)Nc1ccccc1N1CCOCC1,-0.0407
2,CCCCc1ccc(NC(=O)C2CCCO2)cc1 (stereo unspecified),-0.173
3,Cc1ccc(C)c(NC(=O)CCC(=O)NNC(=O)c2cccs2)c1,0.00288
4,O=C(c1ccc(-c2ccccc2)cc1)N1CCCC1,0.357
5,CC(=O)C1=C(C)NC(SCC(=O)c2ccc(F)cc2)=C(C#N)C1c1ccco1 (stereo unspecified),-0.403
6,O=C(/C=C\c1ccc2c(c1)OCO2)NC1(C(=O)Nc2ccc3c(c2)OCO3)CCCCC1,0.145
7,CCCC(c1nnnn1CS(=O)(=O)c1ccc(C)cc1)N1CCN(c2ccccc2)CC1 (stereo unspecified),-0.889
8,Clc1ccc(OCc2cnc(Cl)s2)cc1,-0.388
9,CC(=O)c1coc2ccc(OCCN3CCCCC3)cc12,-0.792
10,Cc1ccc(OCC(=O)N2CCN(C(=O)CCC3CCCC3)CC2)cc1,-0.203
11,CC(C)Oc1ccc(C(=O)N2CCCc3ccccc32)cc1,0.401
12,CCNC(=S)N/N=C/c1ccc(OCc2ccc(C(=O)OC)cc2)cc1,-0.107
13,O=C(NCCc1ccccc1)C(=O)c1c(-c2ccccc2)cc2ccccn12,-0.0581
14,CCOC(=O)C/C(C)=N/NC(=O)COc1ccccc1C,0.0596
15,COc1ccc(NC(=O)CCC(=O)N(Cc2ccc(OC)c(OC)c2)c2nccs2)cc1,-0.00666
16,CCOC(=O)C[n+]1c(C)ccc2c1CCC2,-0.223
17,COc1ccc(C)cc1NC(=O)CSc1nnc(-c2ccc(C)cc2)o1,-0.202
18,O=C(COC(=O)Cc1cccs1)Nc1ccccc1,-0.45
19,Cc1ccc2cccc(S(=O)(=O)N3CCN(c4cccc(Cl)c4)CC3)c2n1,0.709
20,CN(C)c1ccc(C(CNC(=O)c2ccccc2Br)c2c[nH]c3ccccc23)cc1 (stereo unspecified),0.212
21,CCN1CCN(c2nc(-c3cccnc3)nc3ccccc23)CC1,-0.778
22,O=C(O)CCC(=O)Nc1ccc(C(=O)N2CCCCC2)cc1,0.0238
23,O=C(NCc1ccco1)c1sc2ccccc2c1Cl,-0.649

row,SMILES,z-score
1,O=C(Nc1ccccc1Cl)c1cccc(NC(=O)C2C3CC4OC(=O)C2C4C3)c1 (stereo unspecified),-0.387
2,CC1CCCCC1NC(=O)CC1Oc2ccccc2NC1=O (stereo unspecified),0.107
3,O=C(NCCc1c[nH]c2ccccc12)C(=O)NCC(c1ccco1)N1CCN(c2ccccc2F)CC1 (stereo unspecified),0.534
4,COc1ccc(C(=O)NC(=S)Nc2cccc(Cl)c2N2CCOCC2)cc1[N+](=O)[O-],-0.0579
5,CCOc1ccccc1N1Cc2ccccc2C1,1.51
6,CCc1cc[n+](-c2nc3ccccc3nc2[N-]S(=O)(=O)c2ccc(Br)s2)cc1,0.232
7,COc1ccc(CCNC(=O)COC(=O)Cc2ccc(OC)cc2)cc1,0.0297
8,CCc1ccc(-c2nc(CN3CCC(C(=O)NCc4ccco4)CC3)c(C)o2)cc1,0.133
9,CCOC(=O)Cc1nnc(Nc2ccc(C)cc2C)c2ccccc12,-0.344
10,CCN(CC)c1ccc(/C=N/NS(=O)(=O)c2ccc(C)c([N+](=O)[O-])c2)cc1,0.166
11,CCOc1ccc(NC(=O)CCn2c(=O)[nH]c3ccsc3c2=O)cc1,-0.46
12,CN1CCN(S(=O)(=O)c2ccc(NC(=S)NC(=O)C3CCC3)cc2)CC1,-0.133
13,O=C(N/N=C/c1ccc(-c2cccc(C(F)(F)F)c2)o1)c1cccc(F)c1,1.36
14,COC(=O)c1c(C(=O)OC)c2cc(C)ccn2c1Cl,-0.371
15,CCOCC(=O)Nc1ccc(S(=O)(=O)Nc2ncccn2)cc1,-0.108
16,Cc1cc(C)cc(OCCCCCNCCO)c1,-0.911
17,CCOC(=O)Cn1c(=O)oc2cc(S(=O)(=O)Nc3cc(Cl)ccc3OC)ccc21,-0.0116
18,CSc1nc2sc3c(c2c(=O)[nH]1)CCc1ccccc1-3,-0.132
19,CCN(CC)C(=O)c1sc(N)c(C#N)c1C,1.2
20,CCc1cc(SC#N)cc(C)c1NC(=O)CCl,0.0322
21,O=C(Cn1c(=O)c2sccc2n(Cc2cccc([N+](=O)[O-])c2)c1=O)NCCc1ccccc1,-0.191
22,CN1CCN(S(=O)(=O)c2ccc(=O)[nH]c2)CC1,-0.0437
23,CC(C)Oc1ccc(/C(O)=C2/C(=O)C(=O)N(CCN(C)C)C2c2cccs2)cc1 (stereo unspecified),0.0182

row,SMILES,z-score
1,Cc1cc(S(=O)(=O)Nc2cc(C)c(O)c(C)c2)c(C)s1,-0.139
2,COc1cc(CN(C2CCCCC2C)S(=O)(=O)c2ccc(S(=O)(=O)NC3CC3)cc2)cc(OC)c1OC (stereo unspecified),0.119
3,Cc1csc(SCC(=O)N2CCN(S(=O)(=O)c3ccccc3)CC2)n1,0.705
4,CC1(C)NC(=O)N(CC(O)COc2cccc(F)c2)C1=O (stereo unspecified),-1.9
5,COc1ccc(-c2noc(CSc3nc(-c4ccccc4)cc(=O)[nH]3)n2)cc1OC,-0.994
6,Cc1ccc(OCCOCCN(C)C)c(Cl)c1,0.611
7,Cc1nc2nc(NCc3cccs3)nn2c(C)c1Cl,-0.497
8,CC(=O)Nc1ccc(S(=O)(=O)NC2(C(F)(F)F)C(=O)Nc3c2c(=O)[nH]c(=O)n3C)cc1 (stereo unspecified),0.00739
9,N#CC(=C=[N-])C1=C(C#N)C(c2ccccc2F)C([n+]2ccccc2)C(O)(C2CC2)N1 (stereo unspecified),0.175
10,O=C(Nc1ccc(C(=O)N2CCCC2)cc1)c1ccccc1F,0.00957
11,Cc1ccc(SCc2noc(C(=O)NCC3CCCO3)c2C(=O)O)cc1C (stereo unspecified),-1.59
12,Cc1nc(NC(=O)CSc2cc(C)c3ccccc3n2)c(Cl)cc1Cl,0.101
13,CCc1cc[n+](-c2nc([O-])sc2C=O)cc1,-0.00509
14,Cn1c(=O)c2c(nc(SCCCO)n2Cc2ccccc2Cl)n(C)c1=O,-1.85
15,CC(C)c1ccc(NC(=O)Nc2cc3sccc3n2C)cc1,-0.114
16,CC(C)(C)SCCNC(=O)c1cccc([N+](=O)[O-])c1,-0.174
17,Cc1cccc(N/C=C/C(=C(C#N)C#N)N(C)C)c1,-0.2
18,COc1ccc(Nc2nc(N)nc(CSc3n[nH]c(-c4ccccc4)n3)n2)cc1,0.585
19,CCOC(=O)c1cccc(NC(=O)CSc2nnc(COc3ccc(Cl)cc3)o2)c1,-0.15
20,COc1cccc(NC(=O)Nc2cccn(Cc3ccccc3)c2=O)c1,0.12
21,O=C(NCCN1CCOCC1)C1CC(=O)N(c2ccc(F)c(Cl)c2)C1 (stereo unspecified),-0.136
22,CN(C)CCNC(=O)c1ccccc1,-0.079
23,O=C(CSc1nc(-c2ccccc2)cc(=O)[nH]1)NCc1ccc2c(c1)OCO2,-0.25

row,SMILES,z-score
1,CN(C)C(=C(C#N)C#N)N1CCN(c2ccc(Cl)c(Cl)c2)CC1,-0.151
2,O=C(CS(=O)(=O)c1cn(Cc2cccc(F)c2)c2ccccc12)N1CCOCC1,0.16
3,CC(=O)Nc1ccc(SCC(=O)c2cc(C)n(-c3ccccc3)c2C)cc1,0.162
4,CCN1CCN(C(=S)c2ccc([N+](=O)[O-])cc2)CC1,-0.204
5,COc1cccc(OCc2nnc(SCC(=O)NCc3ccco3)n2CCc2ccccc2)c1,-0.317
6,CCCOc1ccc(C2C(=O)N(C3CCCCCC3)CC(=O)N2Cc2ccco2)cc1OC (stereo unspecified),-0.437
7,COc1ccc(CCC(=O)Nc2ccc(N3CCOCC3)cc2)cc1,-0.283
8,O=C(NCc1ccc2c(c1)OCO2)c1ccc(N2C(=O)C3CCCCC3C2=O)cc1 (stereo unspecified),-0.0941
9,Cc1nn(CC(=O)OCC(=O)Nc2ccccc2[N+](=O)[O-])c(C)c1[N+](=O)[O-],0.113
10,Nc1nc(SCc2ccc(Cl)cc2Cl)n[nH]1,-0.257
11,CCOc1cc(C2C(C(=O)N3CCCCC3)=C(C)NC3=C2C(=O)CCC3)cc(Br)c1O (stereo unspecified),-0.346
12,CNc1nc(Oc2ccc(C(=O)OC)cc2)nc(SC)n1,-0.454
13,CCCCC(=NCCO)C1=C(O)C(C(=O)OC)C(C)(C)CC1=O (stereo unspecified),-0.13
14,O=C(Cc1nc2ccccc2s1)c1ccc(O)cc1O,-0.0144
15,COC(=O)N/N=C/c1cn(CCCOc2ccccc2)c2ccccc12,-0.153
16,COc1ccc2c(c1)c(=O)oc1cc(OCC(=O)N3CCc4ccccc4C3)ccc12,-0.0237
17,CC(=O)N(C)c1nnc(-c2ccccn2)s1,-0.0164
18,CCCOC1(NC(=O)c2ccccc2)C(C)=CC(=O)C=C1C,-0.0138
19,CC1CCN(C(=S)c2ccc(O)cc2)CC1,0.161
20,COCCN(CC(=O)NCC1CCCO1)C(=O)CCC(=O)Nc1cc(C)on1 (stereo unspecified),0.00691
21,O=C(O)c1[nH]nc2c1COc1ccccc1-2,-0.00516
22,COCCNC(=O)CN1CCC(NC(=O)Nc2ccc(C(F)(F)F)cc2)CC1,-0.00814
23,COc1ccc(C2N=C(N)N=C(N)N2c2ccccc2OC)cc1OC (stereo unspecified),-0.0342

row,SMILES,z-score
1,CCOC(=O)c1ccccc1NC(=O)CSc1nc(N)cc(N)n1,-1.18
2,O=C(NN=C1CCCCC1)c1ccccc1OCc1ccc(F)cc1,0.0808
3,CCOc1cc(S(=O)(=O)N2CCN(CC)CC2)ccc1Cl,-0.29
4,O=C(NCc1ccco1)c1cnn2c1NC(c1ccc(Br)cc1)CC2C(F)(F)F (stereo unspecified),0.183
5,CCN(CC)S(=O)(=O)c1ccc(N2CCOCC2)c(NC(=O)C2CCCC2)c1,0.0379
6,CCCOC(=S)NC(=O)c1sc2ccccc2c1Cl,active: 12
7,O=C(O)CCSc1nc2ccccc2n1CCOc1ccccc1,0.105
8,CN(c1ccccc1C(=O)NCC1CCCO1)S(C)(=O)=O (stereo unspecified),0.319
9,CC1(C)Cc2nc(N)c(=O)sc2C1,-0.282
10,CC(NC(=O)CSc1nc2sc3c(c2c(=O)n1-c1ccccc1)CCCC3)c1ccccc1 (stereo unspecified),-0.244
11,CCOC(=O)N1CCN(CC(O)COCc2ccc(OC)c(OC)c2)CC1 (stereo unspecified),0.0416
12,CCOC(=O)c1ccc(NC(=O)c2ccc(NS(C)(=O)=O)cc2)cc1,-0.167
13,O=C(Nc1ccccc1-c1ccccc1)NC1CC2CCCC(C1)N2CCc1ccccc1 (stereo unspecified),0.521
14,COc1ccc(NC(=S)NCC2CCN(c3ccc(OC)cc3)C2)cc1 (stereo unspecified),0.136
15,FC(F)(F)c1cc(-c2ccco2)nc(-n2cnc3ccccc32)n1,0.376
16,Cn1c(C(=O)NCc2ccccc2)cc2oc3ccccc3c21,0.0429
17,CC(C)N(c1ccccc1)c1ccc(NC(=O)COC(=O)CCN2C(=O)c3cccc([N+](=O)[O-])c3C2=O)cc1,-0.494
18,Cc1c(C(=O)Nc2ccc3c(c2)OCO3)sc2nc(-c3ccccc3)cn12,-0.271
19,COCCNS(=O)(=O)c1cc(OC)c(Cl)cc1Cl,0.0544
